# From the supplement of paper PMC4967469
# Lines with a small IC50 respond at low doses; where the fit passes the top or lowest dose, that dose stands as a limit. AUC sums up the same curve from the lowest dose to the 256-fold higher top dose; the more sensitive the line, the further below 1. For some of these results: The top dose, if marked as inferred, was derived from the fitted curves, not read from the paper.
# Assays:
# Assay in all cases: Viability of human cancer cell lines after 72 h of drug (GDSC screen)
# QL-XI-92 = compound: C=CC(=O)Nc1cc(NC(=O)c2ccc(C)c(NC(=O)c3ccno3)c2)cc(C(F)(F)F)c1 [QL-XI-92]; details: top dose 10.24 µM; top dose inferred
# Experimental: (§1)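 Human cancer cell lines in 384-well plates, medium with 10% serum, drug for 72 h over a 256-fold dose range (nine 2-fold or five 4-fold steps up to the top dose). Adherent lines were fixed and stained with the nucleic acid dye Syto60, suspension lines read with resazurin; signal relative to control wells, capped at 0 and 100%. One two-parameter sigmoid per drug and line, fitted in a mixed model over all curves with the slope shared within a line.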
# Vinorelbine = compound: CCC1=C[C@@H]2CN(C1)Cc1c([nH]c3ccccc13)[C@@](C(=O)OC)(c1cc3c(cc1OC)N(C)[C@H]1[C@@](O)(C(=O)OC)[C@H](OC(C)=O)[C@]4(CC)C=CCN5CC[C@]31[C@@H]54)C2 [Vinorelbine]; details: top dose 0.064 µM; top dose inferred
# Experimental: as §1
# AG-014699 = compound: CNCc1ccc(-c2[nH]c3cc(F)cc4c3c2CCNC4=O)cc1 [AG-014699]; details: top dose 5 µM; top dose inferred
# Experimental: as §1
# XL-184 = compound: COc1cc2nccc(Oc3ccc(NC(=O)C4(C(=O)Nc5ccc(F)cc5)CC4)cc3)c2cc1OC [XL-184]; details: top dose 5.12 µM; top dose inferred
# Experimental: as §1
# WHI-P97 = compound: COc1cc2ncnc(Nc3cc(Br)c(O)c(Br)c3)c2cc1OC [WHI-P97]; details: top dose 10.24 µM; top dose inferred
# Experimental: as §1
# Gefitinib = compound: COc1cc2ncnc(Nc3ccc(F)c(Cl)c3)c2cc1OCCCN1CCOCC1 [Gefitinib]; details: top dose 0.5 µM
# Experimental: as §1
# Phenformin = compound: N=C(N)NC(=N)NCCc1ccccc1 [Phenformin]; details: top dose 4000 µM; top dose inferred
# Experimental: as §1
# S-Trityl-L-cysteine = compound: N[C@@H](CSC(c1ccccc1)(c1ccccc1)c1ccccc1)C(=O)O [S-Trityl-L-cysteine]; details: top dose 5.12 µM; top dose inferred
# Experimental: as §1
# EHT 1864 = compound: O=c1cc(CN2CCOCC2)occ1OCCCCCSc1ccnc2cc(C(F)(F)F)ccc12 [EHT 1864]; details: top dose 10 µM; top dose inferred
# Experimental: as §1
# NU-7441 = compound: O=c1cc(N2CCOCC2)oc2c(-c3cccc4c3sc3ccccc34)cccc12 [NU-7441]; details: top dose 2 µM; top dose inferred
# Experimental: as §1
Cell Line,AUC (QL-XI-92),IC50 (QL-XI-92),AUC (Vinorelbine),IC50 (Vinorelbine),AUC (AG-014699),IC50 (AG-014699),AUC (XL-184),IC50 (XL-184),AUC (WHI-P97),IC50 (WHI-P97),AUC (Gefitinib),IC50 (Gefitinib),AUC (Phenformin),IC50 (Phenformin),AUC (S-Trityl-L-cysteine),IC50 (S-Trityl-L-cysteine),AUC (EHT 1864),IC50 (EHT 1864),AUC (NU-7441),IC50 (NU-7441)
"SK-UT-1 (soft tissue, adherent)",0.973,> 10.2 µM,0.392,0.00208 µM,0.924,> 5 µM,0.989,> 5.12 µM,0.989,> 10.2 µM,0.963,> 0.5 µM,0.883,3640 µM,0.612,0.632 µM,0.963,> 10 µM,0.899,> 2 µM
"SU-DHL-4 (B-cell lymphoma, suspension)",0.983,> 10.2 µM,0.836,0.0267 µM,0.997,> 5 µM,0.944,4.72 µM,0.997,> 10.2 µM,0.995,> 0.5 µM,0.16,36.5 µM,0.712,1.04 µM,0.985,> 10 µM,0.997,> 2 µM
"SU-DHL-16 (B-cell lymphoma, suspension)",0.674,1.69 µM,0.365,0.00188 µM,0.988,> 5 µM,0.604,0.57 µM,0.992,> 10.2 µM,0.996,> 0.5 µM,0.483,228 µM,0.684,0.893 µM,0.957,> 10 µM,0.992,> 2 µM
"SUP-B15 (lymphoblastic leukaemia, suspension)",0.488,0.596 µM,0.45,0.00293 µM,0.796,2.23 µM,0.762,1.75 µM,0.901,> 10.2 µM,0.983,> 0.5 µM,0.307,74 µM,0.582,0.532 µM,0.934,> 10 µM,0.919,> 2 µM
"SUP-HD1 (Hodgkin lymphoma, suspension)",0.806,4.9 µM,0.733,0.0178 µM,0.985,> 5 µM,0.944,> 5.12 µM,0.972,> 10.2 µM,0.964,> 0.5 µM,0.804,1890 µM,0.833,3.1 µM,0.98,> 10 µM,0.937,> 2 µM
"SW684 (fibrosarcoma, adherent)",0.981,> 10.2 µM,0.74,0.0273 µM,0.967,> 5 µM,0.983,> 5.12 µM,0.983,> 10.2 µM,0.983,> 0.5 µM,0.906,> 4000 µM,0.946,> 5.12 µM,0.918,> 10 µM,0.937,> 2 µM
"SW954 (urogenital system, adherent)",0.922,> 10.2 µM,0.536,0.00504 µM,0.874,4.97 µM,0.78,2.13 µM,0.873,10.1 µM,0.899,> 0.5 µM,0.3,67.9 µM,0.58,0.533 µM,0.963,> 10 µM,0.981,> 2 µM
"SW962 (urogenital system, adherent)",0.97,> 10.2 µM,0.765,0.0291 µM,0.946,> 5 µM,0.91,> 5.12 µM,0.937,> 10.2 µM,0.953,> 0.5 µM,0.668,828 µM,0.69,1.25 µM,0.98,> 10 µM,0.849,> 2 µM
"SW982 (soft tissue, adherent)",0.832,6.8 µM,0.564,0.00601 µM,0.892,> 5 µM,0.92,> 5.12 µM,0.96,> 10.2 µM,0.978,> 0.5 µM,0.971,> 4000 µM,0.674,0.997 µM,0.98,> 10 µM,0.929,> 2 µM
"TE-9 (oesophagus, adherent)",0.986,> 10.2 µM,0.301,,0.934,> 5 µM,0.983,> 5.12 µM,0.973,> 10.2 µM,0.962,> 0.5 µM,0.864,3720 µM,0.671,0.977 µM,0.933,> 10 µM,0.959,> 2 µM
"TE-11 (oesophagus, adherent)",0.99,> 10.2 µM,0.562,0.00582 µM,0.958,> 5 µM,0.971,> 5.12 µM,0.99,> 10.2 µM,0.967,> 0.5 µM,0.878,3440 µM,0.575,0.503 µM,0.955,> 10 µM,0.981,> 2 µM
"TGBC1TKB (biliary tract, adherent)",0.985,> 10.2 µM,0.848,0.047 µM,0.98,> 5 µM,0.973,> 5.12 µM,0.984,> 10.2 µM,0.976,> 0.5 µM,0.971,> 4000 µM,0.807,2.6 µM,0.976,> 10 µM,0.975,> 2 µM
"TGW (neuroblastoma, adherent)",0.99,> 10.2 µM,0.925,> 0.064 µM,0.977,> 5 µM,0.92,> 5.12 µM,0.926,> 10.2 µM,0.992,> 0.5 µM,0.988,> 4000 µM,0.742,1.4 µM,0.99,> 10 µM,0.982,> 2 µM
